The supplement of paper PMC9151546
Single values are uncertain, as repeats are few or missing.

Columns and labels:
CHO-K1 [1] = experiment: micronucleus frequency (% of nucleated events); higher = more micronuclei (genotoxic)
CHO-K1 [2] = experiment: hypodiploid nuclei frequency (% of nucleated events); higher = more hypodiploid events (aneugenic)
CHO-K1 [3] = experiment: relative survival (nuclei to bead ratio vs DMSO control) (% of vehicle control); higher = more surviving cells
[4] = concentration: 4.5 (µM), S9 metabolic activation: with S9, exposure time: 3-4 hours
[5] = concentration: 4.5 (µM), S9 metabolic activation: without S9, exposure time: 24 hours
[6] = concentration: 5.63 (µM), S9 metabolic activation: with S9, exposure time: 3-4 hours
[7] = concentration: 5.63 (µM), S9 metabolic activation: without S9, exposure time: 24 hours
[8] = concentration: 7.04 (µM), S9 metabolic activation: with S9, exposure time: 3-4 hours
[9] = concentration: 7.04 (µM), S9 metabolic activation: without S9, exposure time: 24 hours
[10] = concentration: 8.8 (µM), S9 metabolic activation: with S9, exposure time: 3-4 hours
[11] = concentration: 8.8 (µM), S9 metabolic activation: without S9, exposure time: 24 hours
[12] = concentration: 11 (µM), S9 metabolic activation: with S9, exposure time: 3-4 hours
[13] = concentration: 11 (µM), S9 metabolic activation: without S9, exposure time: 24 hours
[14] = concentration: 13.7 (µM), S9 metabolic activation: with S9, exposure time: 3-4 hours
[15] = concentration: 13.7 (µM), S9 metabolic activation: without S9, exposure time: 24 hours
[16] = concentration: 17.2 (µM), S9 metabolic activation: with S9, exposure time: 3-4 hours
[17] = concentration: 17.2 (µM), S9 metabolic activation: without S9, exposure time: 24 hours
[18] = concentration: 21.5 (µM), S9 metabolic activation: with S9, exposure time: 3-4 hours
[19] = concentration: 21.5 (µM), S9 metabolic activation: without S9, exposure time: 24 hours
[20] = concentration: 26.8 (µM), S9 metabolic activation: with S9, exposure time: 3-4 hours
[21] = concentration: 26.8 (µM), S9 metabolic activation: without S9, exposure time: 24 hours
[22] = concentration: 33.6 (µM), S9 metabolic activation: with S9, exposure time: 3-4 hours
[23] = concentration: 33.6 (µM), S9 metabolic activation: without S9, exposure time: 24 hours
[24] = concentration: 41.9 (µM), S9 metabolic activation: with S9, exposure time: 3-4 hours
[25] = concentration: 41.9 (µM), S9 metabolic activation: without S9, exposure time: 24 hours
[26] = concentration: 52.4 (µM), S9 metabolic activation: with S9, exposure time: 3-4 hours
[27] = concentration: 52.4 (µM), S9 metabolic activation: without S9, exposure time: 24 hours
[28] = concentration: 65.5 (µM), S9 metabolic activation: with S9, exposure time: 3-4 hours
[29] = concentration: 65.5 (µM), S9 metabolic activation: without S9, exposure time: 24 hours
[30] = concentration: 81.9 (µM), S9 metabolic activation: with S9, exposure time: 3-4 hours
[31] = concentration: 81.9 (µM), S9 metabolic activation: without S9, exposure time: 24 hours
[32] = concentration: 102 (µM), S9 metabolic activation: with S9, exposure time: 3-4 hours
[33] = concentration: 102 (µM), S9 metabolic activation: without S9, exposure time: 24 hours
[34] = concentration: 128 (µM), S9 metabolic activation: with S9, exposure time: 3-4 hours
[35] = concentration: 128 (µM), S9 metabolic activation: without S9, exposure time: 24 hours
[36] = concentration: 160 (µM), S9 metabolic activation: with S9, exposure time: 3-4 hours
[37] = concentration: 160 (µM), S9 metabolic activation: without S9, exposure time: 24 hours
[38] = concentration: 200 (µM), S9 metabolic activation: with S9, exposure time: 3-4 hours
[39] = concentration: 200 (µM), S9 metabolic activation: without S9, exposure time: 24 hours
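Wherever hypodiploid nuclei frequency (% of nucleated events) is given: hypodiploid nuclei gated on a flow cytometer with 488 nm excitation after SYTOX Green staining, cultures at 37 °C, positive controls vinblastine without S9 and cyclophosphamide with S9.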
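Wherever micronucleus frequency (% of nucleated events) is given: cells lysed with nuclei stained by SYTOX Green, then micronucleus-gated events counted against nucleated events by flow cytometry with 488 nm excitation.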
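Wherever relative survival (nuclei to bead ratio vs DMSO control) is given: Lysed-cell nuclei stained with SYTOX Green and counted against counting beads by flow cytometry at 488 nm excitation, with vinblastine (no S9) and cyclophosphamide (plus S9) as positive controls.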

`Cc1ccc(N(C)C)cc1` [N,N,4-Trimethylaniline] was tested, and the micronucleus frequency (CHO-K1 [1]; [4]) was 0.9%, the micronucleus frequency (CHO-K1 [1]; [5]) was 2.18% and the micronucleus frequency (CHO-K1 [1]; [6]) was 1.3%. The micronucleus frequency (CHO-K1 [1]; [7]) was 1.64%, the micronucleus frequency (CHO-K1 [1]; [8]) was 1.06% and the micronucleus frequency (CHO-K1 [1]; [9]) was 1.8%. The micronucleus frequency (CHO-K1 [1]; [10]) was 1.2%, the micronucleus frequency (CHO-K1 [1]; [11]) was 1.7% and the micronucleus frequency (CHO-K1 [1]; [12]) was 1.16%. For the same compound, the micronucleus frequency (CHO-K1 [1]; [13]) was 2.3%, the micronucleus frequency (CHO-K1 [1]; [14]) was 0.76% and the micronucleus frequency (CHO-K1 [1]; [15]) was 1.78%. The micronucleus frequency (CHO-K1 [1]; [16]) was 1.1%, the micronucleus frequency (CHO-K1 [1]; [17]) was 1.84% and the micronucleus frequency (CHO-K1 [1]; [18]) was 0.94%. It also gave a micronucleus frequency (CHO-K1 [1]; [19]) of 1.6%, a micronucleus frequency (CHO-K1 [1]; [20]) of 1.16% and a micronucleus frequency (CHO-K1 [1]; [21]) of 1.78%. It also gave a micronucleus frequency (CHO-K1 [1]; [22]) of 1.1%, a micronucleus frequency (CHO-K1 [1]; [23]) of 2.22% and a micronucleus frequency (CHO-K1 [1]; [24]) of 1.26%. The micronucleus frequency (CHO-K1 [1]; [25]) was 1.74%, the micronucleus frequency (CHO-K1 [1]; [26]) was 1.16% and the micronucleus frequency (CHO-K1 [1]; [27]) was 1.96%. For the same compound, the micronucleus frequency (CHO-K1 [1]; [28]) was 1.28%, the micronucleus frequency (CHO-K1 [1]; [29]) was 1.76% and the micronucleus frequency (CHO-K1 [1]; [30]) was 1.2%. The micronucleus frequency (CHO-K1 [1]; [31]) was 1.64%, the micronucleus frequency (CHO-K1 [1]; [32]) was 1.58% and the micronucleus frequency (CHO-K1 [1]; [33]) was 1.86%. It also gave a micronucleus frequency (CHO-K1 [1]; [34]) of 1.4%, a micronucleus frequency (CHO-K1 [1]; [35]) of 2.28% and a micronucleus frequency (CHO-K1 [1]; [36]) of 1.48%. It also gave a micronucleus frequency (CHO-K1 [1]; [37]) of 2.44%, a micronucleus frequency (CHO-K1 [1]; [38]) of 1.48% and a micronucleus frequency (CHO-K1 [1]; [39]) of 2.86%. For the same compound, the hypodiploid nuclei frequency (CHO-K1 [2]; [4]) was 0.16%, the hypodiploid nuclei frequency (CHO-K1 [2]; [5]) was 0.92% and the hypodiploid nuclei frequency (CHO-K1 [2]; [6]) was 0.3%. The hypodiploid nuclei frequency (CHO-K1 [2]; [7]) was 0.78%, the hypodiploid nuclei frequency (CHO-K1 [2]; [8]) was 0.16% and the hypodiploid nuclei frequency (CHO-K1 [2]; [9]) was 1.02%. For the same compound, the hypodiploid nuclei frequency (CHO-K1 [2]; [10]) was 0.12%, the hypodiploid nuclei frequency (CHO-K1 [2]; [11]) was 0.7% and the hypodiploid nuclei frequency (CHO-K1 [2]; [12]) was 0.2%. It also gave a hypodiploid nuclei frequency (CHO-K1 [2]; [13]) of 0.8%, a hypodiploid nuclei frequency (CHO-K1 [2]; [14]) of 0.16% and a hypodiploid nuclei frequency (CHO-K1 [2]; [15]) of 0.64%. For the same compound, the hypodiploid nuclei frequency (CHO-K1 [2]; [16]) was 0.2%, the hypodiploid nuclei frequency (CHO-K1 [2]; [17]) was 0.82% and the hypodiploid nuclei frequency (CHO-K1 [2]; [18]) was 0.12%. It also gave a hypodiploid nuclei frequency (CHO-K1 [2]; [19]) of 0.72%, a hypodiploid nuclei frequency (CHO-K1 [2]; [20]) of 0.12% and a hypodiploid nuclei frequency (CHO-K1 [2]; [21]) of 1.16%. The hypodiploid nuclei frequency (CHO-K1 [2]; [22]) was 0.2%, the hypodiploid nuclei frequency (CHO-K1 [2]; [23]) was 0.92% and the hypodiploid nuclei frequency (CHO-K1 [2]; [24]) was 0.2%. For the same compound, the hypodiploid nuclei frequency (CHO-K1 [2]; [25]) was 1.26%, the hypodiploid nuclei frequency (CHO-K1 [2]; [26]) was 0.2% and the hypodiploid nuclei frequency (CHO-K1 [2]; [27]) was 1.28%. It also gave a hypodiploid nuclei frequency (CHO-K1 [2]; [28]) of 0.28%, a hypodiploid nuclei frequency (CHO-K1 [2]; [29]) of 1.16% and a hypodiploid nuclei frequency (CHO-K1 [2]; [30]) of 0.28%. The hypodiploid nuclei frequency (CHO-K1 [2]; [31]) was 0.78%, the hypodiploid nuclei frequency (CHO-K1 [2]; [32]) was 0.24% and the hypodiploid nuclei frequency (CHO-K1 [2]; [33]) was 1.18%. It also gave a hypodiploid nuclei frequency (CHO-K1 [2]; [34]) of 0.16%, a hypodiploid nuclei frequency (CHO-K1 [2]; [35]) of 1.22% and a hypodiploid nuclei frequency (CHO-K1 [2]; [36]) of 0.26%. The hypodiploid nuclei frequency (CHO-K1 [2]; [37]) was 1.28%, the hypodiploid nuclei frequency (CHO-K1 [2]; [38]) was 0.18% and the hypodiploid nuclei frequency (CHO-K1 [2]; [39]) was 1.68%. It also gave a relative survival (CHO-K1 [3]; [4]) of 138, a relative survival (CHO-K1 [3]; [5]) of 154 and a relative survival (CHO-K1 [3]; [6]) of 120. For the same compound, the relative survival (CHO-K1 [3]; [7]) was 138, the relative survival (CHO-K1 [3]; [8]) was 139 and the relative survival (CHO-K1 [3]; [9]) was 132. It also gave a relative survival (CHO-K1 [3]; [10]) of 171, a relative survival (CHO-K1 [3]; [11]) of 185 and a relative survival (CHO-K1 [3]; [12]) of 164. For the same compound, the relative survival (CHO-K1 [3]; [13]) was 163, the relative survival (CHO-K1 [3]; [14]) was 153 and the relative survival (CHO-K1 [3]; [15]) was 147. For the same compound, the relative survival (CHO-K1 [3]; [16]) was 147, the relative survival (CHO-K1 [3]; [17]) was 140 and the relative survival (CHO-K1 [3]; [18]) was 175. The relative survival (CHO-K1 [3]; [19]) was 169, the relative survival (CHO-K1 [3]; [20]) was 147 and the relative survival (CHO-K1 [3]; [21]) was 110. It also gave a relative survival (CHO-K1 [3]; [22]) of 120, a relative survival (CHO-K1 [3]; [23]) of 129 and a relative survival (CHO-K1 [3]; [24]) of 165. For the same compound, the relative survival (CHO-K1 [3]; [25]) was 132, the relative survival (CHO-K1 [3]; [26]) was 141 and the relative survival (CHO-K1 [3]; [27]) was 126. The relative survival (CHO-K1 [3]; [28]) was 182, the relative survival (CHO-K1 [3]; [29]) was 118 and the relative survival (CHO-K1 [3]; [30]) was 182. The relative survival (CHO-K1 [3]; [31]) was 109, the relative survival (CHO-K1 [3]; [32]) was 162 and the relative survival (CHO-K1 [3]; [33]) was 151. The relative survival (CHO-K1 [3]; [34]) was 162, the relative survival (CHO-K1 [3]; [35]) was 133 and the relative survival (CHO-K1 [3]; [36]) was 200. For the same compound, the relative survival (CHO-K1 [3]; [37]) was 119, the relative survival (CHO-K1 [3]; [38]) was 179 and the relative survival (CHO-K1 [3]; [39]) was 109.
